# In the BET-seq Pho4 binding data (Le et al. 2018):
# The list shows a part of the results. Values were computed here from the reads of four pooled replicates and scatter widely.
# Target: T1, Pho4 (S. cerevisiae) (UniProt P07270)
# T1 sequence: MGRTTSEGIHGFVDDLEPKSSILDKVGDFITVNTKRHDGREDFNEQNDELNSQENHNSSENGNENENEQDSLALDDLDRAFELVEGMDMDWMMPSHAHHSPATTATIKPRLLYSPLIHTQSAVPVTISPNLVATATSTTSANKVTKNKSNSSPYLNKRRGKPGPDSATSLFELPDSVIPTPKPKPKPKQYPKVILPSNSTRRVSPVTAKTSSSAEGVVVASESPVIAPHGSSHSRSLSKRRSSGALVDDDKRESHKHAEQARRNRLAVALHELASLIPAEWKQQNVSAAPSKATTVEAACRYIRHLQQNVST
# Experiment: relative binding free energy (BET-seq); higher = weaker binding
# Conditions: reference: library average
row,Sequence,relative binding free energy [kJ/mol]
1,GGATTCACGTGTGTAA,1.3
2,AGATTCACGTGATCGG,1.3
3,TAGGGCACGTGCGTAA,-0.795
4,GTAAACACGTGTTTGG,0
5,TAAGGCACGTGGGCTT,-0.962
6,TTGCTCACGTGGATGG,0.335
7,TTTAGCACGTGGAATA,-0.293
8,TGTTGCACGTGAGTGA,1.21
9,TGTTTCACGTGACTTG,0.92
10,TTTTTCACGTGCATGT,0.879
11,TTTTCCACGTGGAATT,0.586
12,ATGGCCACGTGAGAGG,0.669
13,GTAGGCACGTGATGCT,-0.0837
14,TTGCTCACGTGGGCTA,0.46
15,AGTTTCACGTGGGCTA,0.628
16,GTGGGCACGTGCTAGA,-0.0418
17,AAAAGCACGTGGTAGT,-0.669
18,ACGGTCACGTGTGGGA,0.46
19,TAGGTCACGTGTCAAG,1.09
20,TTGGACACGTGAGCTT,0.753
21,GGTTGCACGTGCTGAG,-0.126
22,GGAATCACGTGTTGCG,0.669
23,TTCGTCACGTGGGACT,0

row,Sequence,relative binding free energy [kJ/mol]
1,GGGTTCACGTGAGCGC,1.42
2,GTTCGCACGTGTGTCG,-0.0837
3,CGTAACACGTGTGGGT,-0.167
4,TATTTCACGTGGATGT,1.09
5,GTGAGCACGTGGTCAG,-0.795
6,CTGGGCACGTGGGGAG,-0.962
7,ATGCGCACGTGCGGTG,-0.962
8,CATAGCACGTGGGAAG,-0.0837
9,TGGGACACGTGTGACA,0.46
10,TGGTTCACGTGTACGA,1.13
11,GTTCGCACGTGTGGTC,0.126
12,AGGTGCACGTGCGTTG,-0.335
13,TGGCGCACGTGTTTGT,-0.335
14,AGTGTCACGTGCGGCG,-0.335
15,TGGTTCACGTGAAAGG,2.22
16,AATTTCACGTGGTTGG,1.42
17,ATGTGCACGTGGAAGC,0.502
18,GTGGACACGTGAGGAT,0.711
19,AAGTGCACGTGTGAAT,0
20,TGATACACGTGCTGTT,0.126
21,ACGGACACGTGTGGGG,-0.126
22,GATGGCACGTGGAATA,0.0418
23,AGCGTCACGTGTGAGG,0.628

row,Sequence,relative binding free energy [kJ/mol]
1,GGGTGCACGTGGCTTG,-0.126
2,AACTGCACGTGTTGTT,-0.418
3,ATGATCACGTGTTTGG,0.251
4,ATGTACACGTGTGGCG,0.377
5,GTTTGCACGTGTGATG,0.544
6,GTTTTCACGTGCGGAG,1.13
7,GGTATCACGTGGGGAG,0.628
8,TAATTCACGTGTGCTT,1.17
9,TAAATCACGTGAGGGG,1.09
10,AGAGGCACGTGGACGT,0.209
11,GTATACACGTGTTTAG,-0.377
12,TATTTCACGTGGTCGG,1
13,TGGTGCACGTGGTAAT,0.0418
14,ATACGCACGTGGGTAT,-0.879
15,GGGCGCACGTGGGGCG,-0.837
16,CGTATCACGTGGGTTC,0.167
17,TTCTTCACGTGACGGT,1.51
18,CGGTCCACGTGAGATG,2.22
19,AGGGGCACGTGAAGTC,0.377
20,GCTCGCACGTGTGGTA,-0.0837
21,TAGGGCACGTGATGCG,-0.251
22,GTTGCCACGTGTAGGA,-0.251
23,TTGTCCACGTGGCGAG,0.293

row,Sequence,relative binding free energy [kJ/mol]
1,AGGAGCACGTGAGTTT,0.669
2,TTCCTCACGTGGTTTT,0.753
3,GATAGCACGTGTATGT,0.209
4,CTTTACACGTGGGTCT,-0.0418
5,TGCGTCACGTGCGGGC,0.126
6,TAACGCACGTGTGGGG,-0.209
7,TTATACACGTGGAGCT,0.628
8,TGTTGCACGTGAATCT,0.628
9,ATTGGCACGTGGATAT,-0.293
10,GTGAGCACGTGCTTGG,-0.628
11,ATAGGCACGTGGCGGG,-0.837
12,CGATGCACGTGAGTGT,0.711
13,TGATGCACGTGAGTTC,0.586
14,CGGTCCACGTGGTATG,-0.209
15,TAACGCACGTGGTAGT,-0.837
16,ATTCACACGTGATGGG,0.586
17,TACTTCACGTGGTGTT,0.628
18,TTTCGCACGTGAAAGT,0.879
19,CGGGTCACGTGGTGAC,0.502
20,GGGGGCACGTGAAAGA,0.753
21,TTAGTCACGTGGGCTC,0.377
22,AATGGCACGTGGAGGC,0.586
23,TACTACACGTGGTATG,-0.0418

row,Sequence,relative binding free energy [kJ/mol]
1,TGGGTCACGTGAATGT,1.26
2,CTTGGCACGTGTGCAG,-0.126
3,GGGTACACGTGGGGTC,0.669
4,AGGGACACGTGTTAGG,0.167
5,GTTCGCACGTGTTTGT,0.0837
6,CTTTACACGTGATTGG,1.34
7,CGGAGCACGTGAGGGT,0.711
8,TAGTACACGTGCATGG,0
9,AAGCACACGTGGTTGT,0.293
10,TATAGCACGTGTCTAT,-0.167
11,GTTGACACGTGGGCGC,-0.377
12,GTATGCACGTGTTTGC,0.46
13,TTCTGCACGTGATAGG,0.126
14,CAGGTCACGTGGTTTA,0.502
15,TGGATCACGTGGTTTT,0.544
16,GGGATCACGTGCGGTA,0.879
17,GTGATCACGTGGATCA,1.13
18,AGAGTCACGTGGTATG,-0.0418
19,TGATGCACGTGCTGGG,-0.711
20,TGTGTCACGTGTTTAG,0.669
21,AAGTTCACGTGCTAGT,1.55
22,GATAGCACGTGTTATT,0.753
23,TGCGGCACGTGTGTCG,0.0837
